The values below come from the BET-seq Pho4 binding data (Le et al. 2018).

This is one part of the list. Values were computed here from the reads of four pooled replicates and scatter widely.

The target of this test is T1, Pho4 (S. cerevisiae) (UniProt P07270).
T1 sequence: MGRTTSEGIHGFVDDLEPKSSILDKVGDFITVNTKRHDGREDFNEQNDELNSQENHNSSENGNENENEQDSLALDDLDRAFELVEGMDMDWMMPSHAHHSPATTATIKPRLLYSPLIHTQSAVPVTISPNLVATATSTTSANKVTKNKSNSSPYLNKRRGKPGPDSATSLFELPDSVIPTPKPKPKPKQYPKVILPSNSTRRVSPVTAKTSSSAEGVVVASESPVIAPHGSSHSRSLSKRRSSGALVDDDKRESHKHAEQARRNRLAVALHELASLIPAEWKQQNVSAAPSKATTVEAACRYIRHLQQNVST
The test can be described thus: relative binding free energy (BET-seq); higher = weaker binding. The note with it: reference: library average.
On to TGCAGCACGTGAAGTG, for which the “relative binding free energy” value was 0.16 kcal/mol.

Take GTTCTCACGTGCTTTG: the “relative binding free energy” value amounted to 0.27 kcal/mol.

On to GGGGACACGTGCGATG, for which the “relative binding free energy” value was 0.1 kcal/mol.

On to AGGGGCACGTGGACGG, for which the “relative binding free energy” value is -0.04 kcal/mol.

As to TATAACACGTGAAGGT, the “relative binding free energy” value turned out to be 0.19 kcal/mol.

Turning to TTAAACACGTGGTTTG, the “relative binding free energy” value amounted to 0.01 kcal/mol.

Take TTCGGCACGTGGGTCT: the “relative binding free energy” value is -0.16 kcal/mol.

For the sequence TGGATCACGTGCGTGA, the “relative binding free energy” value was 0.08 kcal/mol.

Consider TGTGTCACGTGACATA, for which the “relative binding free energy” value worked out at 0.13 kcal/mol.

For the sequence TTGTACACGTGACATT, the “relative binding free energy” value is 0.22 kcal/mol.

Take TCGTACACGTGTGGTC: the “relative binding free energy” value stood at 0.16 kcal/mol.

In the case of TCGGCCACGTGGTGTA, the “relative binding free energy” value was -0.04 kcal/mol.

ACGGACACGTGGGAGT: the “relative binding free energy” value is -0.19 kcal/mol.

Turning to GTGTTCACGTGTAAGA, the “relative binding free energy” value was found to be 0.27 kcal/mol.

With GGGTGCACGTGGCAAA, the “relative binding free energy” value was -0.03 kcal/mol.

Regarding ATAAACACGTGGTAGG, the “relative binding free energy” value was -0.06 kcal/mol.

Take TTGCTCACGTGGTGAA: the “relative binding free energy” value is 0.23 kcal/mol.

Turning to AATTACACGTGGGATT, the “relative binding free energy” value worked out at 0.07 kcal/mol.

Consider TGGGTCACGTGAAATC, for which the “relative binding free energy” value amounted to 0.35 kcal/mol.

In the case of TGAGCCACGTGTTTAT, the “relative binding free energy” value was -0.02 kcal/mol.

Turning to GGCGGCACGTGGTATA, the “relative binding free energy” value was -0.11 kcal/mol.

Consider CGAGTCACGTGGGCTG, for which the “relative binding free energy” value was -0.01 kcal/mol.

As for TAGGGCACGTGTTTCA, the “relative binding free energy” value is -0.22 kcal/mol.

ATCTTCACGTGATGGA: the “relative binding free energy” value was 0.37 kcal/mol.

TTGTGCACGTGCGGAT: the “relative binding free energy” value is -0.12 kcal/mol.

With TCGGACACGTGTGAGT, the “relative binding free energy” value was determined as 0.12 kcal/mol.

As to GGATTCACGTGGATAG, the “relative binding free energy” value worked out at 0.39 kcal/mol.

Take GTAGGCACGTGAACGG: the “relative binding free energy” value came to 0.14 kcal/mol.

As to GTGGGCACGTGCGGAT, the “relative binding free energy” value was -0.09 kcal/mol.

Consider AGGGGCACGTGAGTAT, for which the “relative binding free energy” value was determined as 0.13 kcal/mol.

As to TACGTCACGTGGTGAA, the “relative binding free energy” value stood at 0.07 kcal/mol.

For the sequence GGGTTCACGTGCAGGG, the “relative binding free energy” value came out at 0.33 kcal/mol.

As to AGTGGCACGTGGGAGC, the “relative binding free energy” value is -0.27 kcal/mol.

On to CTTGACACGTGTTGAG, for which the “relative binding free energy” value turned out to be 0.02 kcal/mol.

Regarding AGGGACACGTGGGCAA, the “relative binding free energy” value came to 0 kcal/mol.

In the case of TTTAACACGTGGAGCG, the “relative binding free energy” value was found to be 0.04 kcal/mol.

Turning to GGTGACACGTGGGCAT, the “relative binding free energy” value was -0.09 kcal/mol.

Turning to TGACTCACGTGGTCGT, the “relative binding free energy” value is 0.19 kcal/mol.

With AGTCACACGTGGGTTT, the “relative binding free energy” value was found to be 0 kcal/mol.

As to GTGAACACGTGGGTTT, the “relative binding free energy” value is -0.01 kcal/mol.

For the sequence CAAATCACGTGGGTTT, the “relative binding free energy” value worked out at 0.07 kcal/mol.

As to GTTTACACGTGCAGAG, the “relative binding free energy” value was 0.27 kcal/mol.

Take CGTTTCACGTGTTTAA: the “relative binding free energy” value turned out to be 0.18 kcal/mol.

On to TGAGCCACGTGTGAGT, for which the “relative binding free energy” value came to 0.05 kcal/mol.

Regarding GGGTGCACGTGAAAGC, the “relative binding free energy” value is 0.24 kcal/mol.

In the case of ATTCTCACGTGGTGTT, the “relative binding free energy” value came out at 0.19 kcal/mol.

As for TGCAGCACGTGGATGT, the “relative binding free energy” value was -0.07 kcal/mol.

On to TGTCTCACGTGAGGAT, for which the “relative binding free energy” value was 0.15 kcal/mol.

As for ATTAGCACGTGTTCGT, the “relative binding free energy” value is -0.05 kcal/mol.

For TGGGACACGTGAATAT, the “relative binding free energy” value turned out to be 0.24 kcal/mol.

TGGGGCACGTGTACGG: the “relative binding free energy” value is -0.1 kcal/mol.

Consider AATTTCACGTGTGGAA, for which the “relative binding free energy” value amounted to 0.27 kcal/mol.

Turning to AGACTCACGTGGGGGG, the “relative binding free energy” value was 0.08 kcal/mol.

In the case of CAGCTCACGTGGGTTG, the “relative binding free energy” value was determined as 0.04 kcal/mol.

As for GGTGTCACGTGTTCTA, the “relative binding free energy” value was 0.21 kcal/mol.

With CAGGCCACGTGGGGGG, the “relative binding free energy” value is -0.33 kcal/mol.

For the sequence GAAAGCACGTGGTGGT, the “relative binding free energy” value was -0.11 kcal/mol.

As to TGCTACACGTGGCGTG, the “relative binding free energy” value is -0.09 kcal/mol.

With GGAGTCACGTGAGTAG, the “relative binding free energy” value came to 0.28 kcal/mol.

On to AAGGGCACGTGTATGC, for which the “relative binding free energy” value is -0.07 kcal/mol.

For the sequence GAAATCACGTGTAGTT, the “relative binding free energy” value is 0.23 kcal/mol.

Turning to TCTGTCACGTGACGGT, the “relative binding free energy” value stood at 0.1 kcal/mol.

On to GGAAACACGTGTGCGG, for which the “relative binding free energy” value was 0 kcal/mol.

Take CTTTTCACGTGGTCGT: the “relative binding free energy” value amounted to 0.15 kcal/mol.

In the case of TGGGGCACGTGTACGC, the “relative binding free energy” value was -0.01 kcal/mol.

Take GTGGCCACGTGTAAAG: the “relative binding free energy” value was 0.09 kcal/mol.

With TGTTTCACGTGTGAAT, the “relative binding free energy” value turned out to be 0.27 kcal/mol.

Take GTTTCCACGTGTAAGG: the “relative binding free energy” value came out at 0.09 kcal/mol.

On to TAGGGCACGTGGAATT, for which the “relative binding free energy” value was -0.06 kcal/mol.

With TTTTACACGTGGGCGC, the “relative binding free energy” value amounted to 0.04 kcal/mol.

For TGAGGCACGTGTTTGA, the “relative binding free energy” value was -0.1 kcal/mol.

With CGATTCACGTGTTGGG, the “relative binding free energy” value turned out to be 0.27 kcal/mol.

Consider ATACGCACGTGGTGGG, for which the “relative binding free energy” value was -0.31 kcal/mol.
